# Test results from the supplement of paper PMC9911699.
# The other results are listed elsewhere or left out.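 The calls were made as follows: active = average curve height above 101 Omnilog units; inactive = average height at or below 101.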 Repeats are few or missing, and single values can be far off.
# Legend:
# [1] = tested on: Acinetobacter baumannii AB6870155; experiment: respiration area under curve on compound as sole carbon source (Biolog PM, 48 h) (arbitrary Omnilog units x h (AUC)); higher = more carbon source utilisation / respiration; conditions: Biolog inoculating fluid, temperature: 37 °C
# [2] = tested on: Klebsiella pneumoniae KP6870155; experiment: as above; conditions: Biolog inoculating fluid, temperature: 37 °C
Structure (SMILES),respiration area under curve [1],respiration area under curve [2]
O=C(O)[C@]1(O)C[C@@H](O)[C@@H](O)[C@H](O)C1 [Quinic Acid],active: 10600,active: 11500
OC[C@@H](O)[C@H](O)[C@H](O)[C@@H](O)CO [Dulcitol],inactive: 2300,active: 11500
OC[C@H]1O[C@H](O[C@H]2[C@H](O)[C@@H](O)[C@H](O)O[C@@H]2CO)[C@H](O)[C@@H](O)[C@@H]1O [Maltose],inactive: 1860,active: 11400
CC(C)C[C@H](N)C(=O)O [L-Leucine],inactive: 6480,inactive: 3570
O=C(O)[C@H](O)[C@@H](O)[C@H](O)[C@H](O)CO[C@H]1O[C@H](CO)[C@H](O)[C@H](O)[C@H]1O [Melibionic Acid],inactive: 1550,active: 11400
NCC(=O)N[C@@H](CCC(=O)O)C(=O)O [Glycyl-L-Glutamic Acid],inactive: 2600,active: 10900
O=C(O)CC(=O)O [Malonic Acid],inactive: 6080,inactive: 3190
O[C@@H]1[C@H](O)[C@H](O)CO[C@H]1O [D-Ribose],active: 11700,active: 12400
NC(=O)C[C@H](N)C(=O)O [L-Asparagine],active: 12500,active: 11400
OC[C@H]1O[C@H](O[C@H]2[C@H](O)[C@@H](O)[C@@H](O[C@H]3[C@H](O)[C@@H](O)C(O)O[C@@H]3CO)O[C@@H]2CO)[C@H](O)[C@@H](O)[C@@H]1O (mixture of isomers) [Maltotriose],inactive: 2030,active: 11300
NCC(=O)N[C@@H](CC(=O)O)C(=O)O [Glycyl-L-Aspartic Acid],inactive: 2560,active: 10600
OC[C@H](O)C(O)[C@@H](O)CO [L-Arabitol],inactive: 1630,inactive: 4180
CC(N)=O [Acetamide],inactive: 1790,inactive: 3960
NCCC[C@H](N)C(=O)O [L-Ornithine],active: 11100,inactive: 5670
N=C(N)NCCC[C@H](N)C(=O)O [L-Arginine],active: 11200,active: 9320
CO[C@H]1O[C@H](CO)[C@@H](O)[C@H](O)[C@H]1O [Alpha-Methyl-D-Glucoside],inactive: 1580,inactive: 4820
O=C(O)[C@@H]1C[C@@H](O)CN1 [Hydroxy-L-Proline],active: 11700,active: 11300
N[C@@H](Cc1c[nH]cn1)C(=O)O [L-Histidine],active: 11100,active: 11900
OCC(O)CO [Glycerol],inactive: 1420,active: 10300

Structure (SMILES),respiration area under curve [1],respiration area under curve [2]
OCc1ccccc1O[C@@H]1O[C@H](CO)[C@@H](O)[C@H](O)[C@H]1O [Salicin],inactive: 1430,active: 11500
O=C(O)[C@@H]1CCCN1 [L-Proline],active: 11900,active: 12000
OCC(O)C(O)C(O)CO (centres undefined) [Adonitol],inactive: 1540,active: 11000
C[C@H](O)C(=O)O [L-Lactic Acid],active: 11400,active: 11000
OC[C@@H](O)[C@@H](O)[C@H](O)[C@H](O)CO [D-Mannitol],inactive: 1910,active: 11600
OC[C@@H](O)[C@@H](O)CO [i-Erythritol],inactive: 2150,inactive: 4070
OC[C@H]1O[C@H](O)[C@H](O)[C@@H](O)[C@@H]1O [Alpha-D-Glucose],active: 9030,active: 10800
O=C(O)CC(O)(C(=O)O)C(=O)C(=O)O (centres undefined) [Oxalomalic Acid],inactive: 2020,inactive: 4310
NCC(=O)N1CCC[C@H]1C(=O)O [Glycyl-L-Proline],inactive: 6530,active: 10900
O=C(O)C(O)C(O)C(=O)O (centres undefined) [m-Tartaric Acid],inactive: 1430,inactive: 3430
OC[C@H]1OC(O)[C@@H](O)[C@@H](O)[C@@H]1O (stereo partly drawn) [D-Mannose],inactive: 2880,active: 12400
OC[C@H]1O[C@@H]2O[C@H]3[C@H](O)[C@@H](O)[C@@H](O[C@H]4[C@H](O)[C@@H](O)[C@@H](O[C@H]5[C@H](O)[C@@H](O)[C@@H](O[C@H]6[C@H](O)[C@@H](O)[C@@H](O[C@H]7[C@H](O)[C@@H](O)[C@@H](O[C@H]8[C@H](O)[C@@H](O)[C@@H](O[C@H]9[C@H](O)[C@@H](O)[C@@H](O[C@H]1[C@H](O)[C@H]2O)O[C@@H]9CO)O[C@@H]8CO)O[C@@H]7CO)O[C@@H]6CO)O[C@@H]5CO)O[C@@H]4CO)O[C@@H]3CO [Gamma-Cyclodextrin],inactive: 2090,inactive: 4540
OC[C@H]1O[C@H](OC[C@H]2OC(O)[C@H](O)[C@@H](O)[C@@H]2O)[C@H](O)[C@@H](O)[C@H]1O (stereo partly drawn) [D-Melibiose],inactive: 2240,active: 10900
COC1OCC(O)C(O)C1O [Beta-Methyl-D-Xyloside],inactive: 1930,inactive: 4260
CC(=O)C(C)O (centres undefined) [3-Hydroxy-2-Butanone],inactive: 2800,inactive: 4840
O=C1CC[C@@H](C(=O)O)N1 [L-Pyroglutamic Acid],active: 12100,inactive: 3880
C[C@H](N)C(=O)NCC(=O)O [L-Alanyl-Glycine],inactive: 3020,active: 11000
O=C(O)Cc1cccc(O)c1 [m-Hydroxy Phenyl Acetic Acid],inactive: 2700,active: 11100
"O=C(O)CC(O)C(=O)O (racemic) [D,L-Malic Acid]",active: 11400,active: 11100

Structure (SMILES),respiration area under curve [1],respiration area under curve [2]
N[C@H](CC(=O)O)C(=O)O [D-Aspartic Acid],inactive: 1670,inactive: 4000
O=C(O)CCC(=O)C(=O)O [Alpha-Keto-Glutaric Acid],active: 9920,inactive: 3470
OC[C@H]1O[C@@](CO)(O[C@H]2O[C@H](CO)[C@@H](O)[C@H](O)[C@H]2O)[C@@H](O)[C@@H]1O [Sucrose],inactive: 1730,active: 11700
O=P(O)(O)O[C@H]1O[C@H](CO)[C@@H](O)[C@H](O)[C@H]1O [D-Glucose-1-Phosphate],inactive: 1510,active: 11700
CCCCCC(=O)O [Caproic Acid],active: 10400,inactive: 2680
O=C1OC(C(O)CO)C(O)C1O [D-Galactonic Acid-gamma-Lactone],inactive: 1480,active: 12100
CCC(O)C(=O)O (stereo not drawn) [Alpha-Hydroxy Butyric Acid],active: 9030,inactive: 4680
CC(=O)CC(=O)O [Acetoacetic Acid],inactive: 3230,inactive: 4630
O=C(O)Cc1ccc(O)cc1 [p-Hydroxy Phenyl Acetic Acid],inactive: 2340,active: 11100
CCCCCCCCCC(=O)O [Capric Acid],inactive: 1810,inactive: 3170
OCC1(O)OC[C@@H](O)[C@@H](O)[C@H]1O (stereo partly drawn) [D-Psicose],inactive: 2970,active: 10800
"CC(O)CO (centres undefined) [1,2-Propanediol]",inactive: 1530,inactive: 3690
NCCCC(=O)O [Gamma-Amino Butyric Acid],active: 11200,active: 10900
C/C(=C/C(=O)O)C(=O)O [Citraconic Acid],active: 8200,inactive: 3190
NCCO [2-Aminoethanol],inactive: 3330,inactive: 5150
OC[C@@H](O)[C@@H](O[C@H]1O[C@H](CO)[C@@H](O)[C@H](O)[C@H]1O)[C@H](O)[C@@H](O)CO [Maltitol],inactive: 1380,active: 10700
C[C@@H](O)[C@H](N)C(=O)O [L-Threonine],inactive: 4790,active: 9030
O=C[C@H](O)[C@@H](O)[C@H](O)[C@H](O)COP(=O)(O)O [D-Glucose-6-Phosphate],inactive: 1860,active: 13400
O=C(O)[C@H]1OC(O)[C@H](O)[C@@H](O)[C@H]1O (stereo partly drawn) [D-Galacturonic Acid],inactive: 3230,active: 11400
